Experimental data as given in the supplement of paper PMC11417369.
This is one part of the list.

system: PF3D7_0420300 AP2 domain 1 (GST-tagged); assay: gcPBM binding intensity (ln(normalized median fluorescence intensity)); higher = stronger DNA binding
How it was run: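 Each value is the highest Masliner-normalised natural-log median intensity across replicate spots of either orientation of a probe. The probes were primer-extended double-stranded 36-bp intergenic genomic sequences on an Agilent 4 × 180k array, alongside negative controls, exposed for 1 h to GST-tagged P. falciparum DNA-binding domains expressed in E. coli. Bound protein was picked up with Alexa488 anti-GST antibody and scanned at 488 nm.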

Row | Sequence | gcPBM binding intensity (ln)
1 | TGAGTACACAATAATACATGCAATTCCTATGAATAT [TGCATGCA_site851] | 9.32
2 | ATAAATATTAAAAGTACACACAGATACACTAATTAT [CACACA_site1808] | 9.75
3 | ATTTACATAATAAAATGTACATTTATAAATATTATA [XGTACX_site1901] | 9.13
4 | TACACTTTTTATGAAGTGCATGTATAGCTCTTAAAA [GTGCAC_site9595] | 8.78
5 | CATTATTCATTTTGGATGCACTGACAGAAAAATGGT | 9.26
6 | ATGCTCAGGAAAACATGTACAAAATTATTTGTTATA [XGTACX_site4306] | 9.11
7 | TTACAAGTAAAAGGTACACACATTATAAATACAAAT [CACACA_site4752] | 9.82
8 | AAGAAAGACATTACGTGTACCAAACAACCTACCAAC [XGTACX_site4219] | 9.63
9 | AAAATTAAACTCACACCACACACAAAAAAAAAAAAA [CACACA_site8131] | 9.64
10 | TGTTTTATCTTATATGCACACGATAAAAAAAAAAAA [CACACA_site2674] | 8.83
11 | ATGTATATGTCTATATGTACTTATATTTTATTTTTT [XGTACX_site5902] | 9.37
12 | ACATAAATATAAACGTGTACATATATAAATATATAT [XGTACX_site7293] | 9.37
13 | CATATATAAAAAAACACACACATATATATATATATA [CACACA_site1195] | 9.63
14 | ATTTTTTTTTTTTATAGTGGATCCACATTTGCCATT [CACACA_negctrl_site1284] | 9.27
15 | ATATATTTTAATTGTTGTACATATTAAATAAATAGG [XGTACX_site2311] | 8.88
16 | TATATTTTATATATGGTGCAACTTTTATTTAAATAA | 8.77
17 | ATTTTTTTTTTTTTTTTTTTTTTATTCTTGTAATCT [CACACA_negctrl_site1039] | 9.23
18 | ATATAATAATAAAGACGTACAAATGTATATATATAC [XGTACX_site3123] | 9.62
19 | CCTTTTTATCTTTTTGTGCACAGACCTTTTTTAAAT | 9.38

Row | Sequence | gcPBM binding intensity (ln)
20 | ATGTAAGTTGTGCATTCACACACATATATATATATA [CACACA_site9086] | 9.52
21 | AAAAAAAAAAAAAACATACACACAATAAAATAGGGG [CACACA_site2398] | 10.1
22 | AACTTAAAAAATAAATGTACATAAATATAAACATAT [XGTACX_site2987] | 9.36
23 | ATATATATATATATAACACACGCAAAAAAATTAAAT [CACACA_site8395] | 9.66
24 | AAAAAAAAAAAAATCACACATAATATAGAATATGTA [CACACA_site4993] | 9.1
25 | TATTTAAATTTTAAGTGTACATATTTATTTATATCT [XGTACX_site6545] | 8.93
26 | TCACTATAATAATTTACACACATTTTAAGAAAATGT [CACACA_site3530] | 9.43
27 | AAAATGAATAAAAATACACACATATCTGTTATTCTC [CACACA_site5474] | 9.45
28 | GAATATTAATTCATACGTACTTATATATAAGTATAT [XGTACX_site3707] | 9.17
29 | TATAAAAATGGGCACACACACACATATATATATTTA [CACACA_site1527] | 10.1
30 | TTATAATAATATAATACATGCATATATATTTAAATA [TGCATGCA_site903] | 9.1
31 | AATACACTAAACAAAAGTACAAAAATATTCTACAAA [XGTACX_site5162] | 9.38
32 | ATGGCCTCATTTGGGACACACAACATAAAATATATA [CACACA_site753] | 9.31
33 | ATAAACATATAAAAAGTGCATATTCATATATCTACT | 9.36
34 | TGTTAATTATAAATTTGTACTTATTTTTACAAAATA [XGTACX_site6598] | 9.02
35 | AAATATATTTTATGTACACACAAAATTAAGGGATAT [CACACA_site4881] | 9.56
36 | CATTTTTTATTTCCTTGTACGAATAAAATATATTTA [XGTACX_site6844] | 9
37 | AATTTAATATAATGCACACATAAAACAAAAACAAAA [CACACA_site529] | 9.71
38 | TATTATCGTTCTCATACACACAAAATATACATACAC [CACACA_site2643] | 9.86

Row | Sequence | gcPBM binding intensity (ln)
39 | TACGTAAATGTGTGTGTGCACGTTATATATTAATAT [GTGCAC_site9976] | 9.91
40 | ACATATATTATTATATGTACATATATTAATTATATA [XGTACX_site3400] | 9.09
41 | ATCATTTTTAAAGGAACACACAAAAAAAATTAAAAT [CACACA_site4878] | 9.46
42 | ACTCTCTTATATTAAACACACATATATATCTGTATA [CACACA_site5489] | 9.66
43 | CTTCTCTTTTTTATCATGCACTTTTTGTATAATAAT [GTGCAC_site9834] | 9.3
44 | GTAAAATATATAAAATGTACATATATTATATATATA [XGTACX_site489] | 9.18
45 | CATTTAAAAGATAAAACACACATACTAATAAAAAAC [CACACA_site5417] | 9.87
46 | TTTCTTTATTAAAATATTTTACATATATAATATACG [TGCATGCA_negctrl_site564] | 9.03
47 | GATGTTCATCACTACACACACAAAGAAATATATATA [CACACA_site2684] | 9.76
48 | AAAGAAAAAAAATATAAAAAATAAAAAATAAAACAA [CACACA_negctrl_site374] | 9.33
49 | TTGTATTTCCTTAGGAGTACACATAAATAAGTAAAT [XGTACX_site6677] | 9.19
50 | TAATATATGTATATATGTACATATAAATGTTATAGA [XGTACX_site2721] | 9.19
51 | TTGGTATAAAATTATAGTACATAAGGTAAATATAAA [XGTACX_site4698] | 9.28
52 | ATTTATATGTGGAGCAGTACGCACTCTCACAATTAA [XGTACX_site7252] | 9.06
53 | TAAAAATTATATATCACACATATATGTCAGTATACA [CACACA_site4624] | 9.21
54 | CACTACATTATGTCATAAATGCATACATAAACATAT [GTGCAC_negctrl_site513] | 9.18
55 | TTTATATTTCAATTTTGTGCTTCGCAAATTGAGAGG [TGCATGCA_negctrl_site327] | 8.74
56 | TATAACATAATATAGACACACACATGTACTTATGCC [CACACA_site8547] | 9.69
57 | GTGTTAATTTTAAATTGTACAAAATTTATATGATTT [XGTACX_site348] | 9.05
